# In PubChem BioAssay AID488969 (Vanderbilt High Throughput Screening Facility, 2010):
# In all, about 110,000 compounds were measured (“z-score”: median about -0.1, highest 2% from about 2 on). The list shows a part of the results.
# Target: Metabotropic glutamate receptor 8 (Rattus norvegicus) (UniProt P70579)
# Assay: mGluR8 Gi/Go-coupled signaling modulation – cell-based, rat, thallium flux, HTS, primary screen (AID 488969)
# Conditions: HEK293 rat mGluR8, GIRK (G protein-gated inwardly rectifying potassium channel) thallium flux, FluoZin2; at 10 µM; stronger effect = higher value; submaximal glutamate (EC20) added with thallium
# Chain of UniProt P70579 (P70579 whole entry, looked up): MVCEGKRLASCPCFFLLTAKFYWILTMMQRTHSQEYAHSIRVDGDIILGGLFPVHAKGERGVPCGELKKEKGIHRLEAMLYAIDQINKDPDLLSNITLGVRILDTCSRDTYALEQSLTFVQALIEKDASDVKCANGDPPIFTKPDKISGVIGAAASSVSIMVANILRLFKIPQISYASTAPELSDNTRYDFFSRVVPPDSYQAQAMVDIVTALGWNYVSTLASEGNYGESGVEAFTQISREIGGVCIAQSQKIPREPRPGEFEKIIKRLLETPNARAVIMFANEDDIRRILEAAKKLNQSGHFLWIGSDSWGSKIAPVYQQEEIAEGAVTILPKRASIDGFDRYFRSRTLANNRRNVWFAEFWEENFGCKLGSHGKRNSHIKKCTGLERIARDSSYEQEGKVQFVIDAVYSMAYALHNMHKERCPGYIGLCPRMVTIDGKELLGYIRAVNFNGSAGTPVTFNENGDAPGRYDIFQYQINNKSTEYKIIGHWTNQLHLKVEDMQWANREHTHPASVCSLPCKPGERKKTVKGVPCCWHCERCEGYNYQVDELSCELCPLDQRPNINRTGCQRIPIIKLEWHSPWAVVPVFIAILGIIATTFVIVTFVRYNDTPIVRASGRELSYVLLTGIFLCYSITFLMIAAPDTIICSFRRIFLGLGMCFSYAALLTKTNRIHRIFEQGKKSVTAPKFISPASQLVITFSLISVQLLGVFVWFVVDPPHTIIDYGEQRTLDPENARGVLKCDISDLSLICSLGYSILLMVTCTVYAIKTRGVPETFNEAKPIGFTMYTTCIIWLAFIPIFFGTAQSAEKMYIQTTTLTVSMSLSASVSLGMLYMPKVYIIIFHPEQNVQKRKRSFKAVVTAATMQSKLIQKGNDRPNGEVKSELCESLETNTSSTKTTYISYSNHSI
row,SMILES,z-score
1,COc1ccc(OCCNC(=S)Nc2cccc3ccccc23)cc1,0.367
2,CCOC(=O)C1=C(CC)NC2=C(C(=O)CCC2)C1c1ccc(OC)c(OC)c1 (stereo unspecified),-0.157
3,O=C(Nc1cc(Cl)ccn1)C1CCN(S(=O)(=O)c2cccs2)CC1,0.347
4,COc1ccc(-n2ccc(=O)c3c2CCCC3=O)cc1,-0.208
5,O=C(Nc1ccccn1)c1ccc2ccccc2n1,-0.139
6,COC(=O)C(C)Sc1ncnc2c1nnn2-c1ccc(F)cc1 (stereo unspecified),0.394
7,Cc1cc(C)cc(NC(=O)c2nnn(Cc3cc(C)ccc3C)c2N)c1,-0.0673
8,COC(=O)c1c(C)nc2ccccc2c1C(=O)O,0.148
9,CC(=O)Nc1cccc(NC(=O)c2cc(-c3cccnc3)nc3ccc(Br)cc23)c1,0.255
10,COc1ccc(Cn2c(CCCO)nc3ccccc32)cc1OC,0.229
11,O=C(Cn1nnc(-c2ccccc2)n1)NCc1ccco1,0.185
12,c1ccc(-n2nnnc2Oc2cccc3cccnc23)cc1,0.00666
13,CCN(CC)c1c([N+](=O)[O-])ncn1C,0.53
14,Cc1ccc(-c2c(C)sc(=NC(=O)c3ccco3)n2C)cc1,-0.33
15,N#Cc1c(-c2ccccc2)cc(-c2ccccc2)nc1SCc1nnc(-c2ccccc2)o1,-0.0499
16,CCOC(=O)N1CCC(N2CCN(S(=O)(=O)c3ccc(C)cc3)CC2)CC1,0.477
17,O=C(NCc1cccs1)C1CCN(S(=O)(=O)c2ccc3c(c2)OCCO3)CC1,-0.357
18,CCc1ccc(C2NC(C(=O)O)CS2)cc1 (stereo unspecified),-0.258
19,Cc1ccc(-c2nc3ccccc3n2C)o1,-0.291
20,CCN(Cc1cc2ccc(C)cc2[nH]c1=O)C(=O)c1cccnc1,-0.212
21,C#Cc1ccc(C(=O)Nc2cc(C(N)=O)ccc2N2CCOCC2)cc1,0.0137
22,Cc1ccc(CNC(=O)COC(=O)[C@@H]2CC(O)CN2S(=O)(=O)c2ccc3c(c2)OCCO3)cc1 (stereo partly specified),-0.146
23,O=C(COc1nc2ccccc2nc1N1CCOCC1)N1CCc2ccccc21,0.615

row,SMILES,z-score
1,N#CCSc1nc2c(cc1C#N)CCCC2,0.113
2,Cc1ccc(S(=O)(=O)NCC2COc3ccccc3O2)cc1 (stereo unspecified),-0.0372
3,CN(C)S(=O)(=O)c1ccc2nc(NC(=O)c3cccnc3)sc2c1,0.447
4,CC(C)(C)n1nc2c(c1NC(=O)Cc1ccc(F)cc1)CSC2,-0.558
5,COc1cccc(C(=O)O/N=C(\N)c2ccc([N+](=O)[O-])cc2)c1OC,0.268
6,CC1=C(C#N)C(NC(=O)c2cccc(Cl)c2)(C(F)(F)F)C(=O)N1 (stereo unspecified),1.42
7,COC(=O)C1=C(C)NC(=O)CC1c1ccccc1 (stereo unspecified),-0.388
8,Cc1nnc(NC(=O)CCCOc2ccccc2)s1,0.567
9,COc1ccc(/C=C/C(=O)c2ccc(Cl)s2)cc1O,-0.156
10,O=C1CSC(c2ccncc2)N1Cc1ccco1 (stereo unspecified),0.22
11,Cc1cc(-c2ccccc2)nc(N(C)NC(=O)c2cccc(C(F)(F)F)c2)c1S(C)(=O)=O,0.638
12,Cc1ccc(CNC(=O)C2(C)Oc3ccccc3NC2=O)cc1 (stereo unspecified),0.22
13,Cc1nn(-c2ccc(C(=O)O)cc2)c(C)c1Oc1ccccc1O,-0.318
14,CC(=O)N1CCN(c2ccc(S(=O)(=O)N3CCCCC3)cn2)CC1,-0.0994
15,COc1cccc(C(=O)Nc2ccc(C(=O)O)cc2)c1,-0.123
16,Cc1nnc(C)n1/N=C/c1cccnc1,0.457
17,C=CCn1c(N2C(=O)CC(Cc3ccccc3)C2=O)nc2ccccc21 (stereo unspecified),-0.0227
18,O=C(CSc1nnc(-c2ccccc2)o1)N1CCc2ccccc2C1,-0.646
19,N#Cc1nc(COc2cccc(Cl)c2)oc1NCc1ccncc1,0.431
20,Clc1ccc(-c2csc(N3CCC(c4ccccc4)C3)n2)cc1 (stereo unspecified),-0.095
21,CC(C)(C)N(NC(=O)Nc1ccccc1)C(=O)c1ccccc1,-0.111
22,CC(=O)NC(Cc1ccccc1)C(=O)NC1CCN(C(=O)NC2CCCCC2)CC1 (stereo unspecified),0.136
23,O=C(NC1CCCc2ccccc21)C1CCN(S(=O)(=O)c2cccc(C(F)(F)F)c2)CC1 (stereo unspecified),-0.154

row,SMILES,z-score
1,O=C(CSc1nnc2scc(-c3ccccc3)n12)Nc1nsc(-c2ccccc2)n1,-0.713
2,Cn1cc([N+](=O)[O-])c(C(=O)N/N=C/c2ccc([N+](=O)[O-])cc2)n1,-0.282
3,COc1ccc(OC)c2sc(NC(=O)c3ccc(Cl)s3)nc12,-0.107
4,CCC(Sc1nncn1C)C(=O)Nc1ccccc1OC (stereo unspecified),0.202
5,O=C(NCc1ccccn1)C1CC(=O)N(C2CCCC2)C1 (stereo unspecified),-0.08
6,CCOC(=O)c1nnn(CC(=O)N2N=C(c3cc(C)ccc3C)CC2c2ccc(OC)cc2)c1C(=O)OCC (stereo unspecified),-0.378
7,COc1ccccc1/C=N/NC(=O)CCSc1ccccc1,0.684
8,Cc1nc2ccccn2c1C(=O)N/N=C/c1ccc(CNC(=O)C(=O)Nc2ccccc2)o1,1.11
9,COc1ccc(C)cc1-n1nnnc1SC/C(O)=C(\C#N)c1nc2ccccc2[nH]1,0.451
10,Cc1cc(Br)ccc1NC(=O)CCSc1ccccc1,0.232
11,CCOC(=O)c1c(N=CN(C)C)c(C#N)c2n1CCCC2,-0.0106
12,CCOc1ccc(NC(=O)CN2CCN(C3c4ccccc4-c4ccccc43)CC2)cc1,-0.223
13,CCCCCN(C(=O)NC(=O)Nc1ccccc1C)S(C)(=O)=O,0.212
14,Nc1nncn1C(=O)c1c(Cl)cccc1Cl,0.0467
15,Cc1c(/C=N/NC(=O)c2ccccc2O)c2ccccn2c1C(=O)c1ccc(F)cc1,-0.231
16,O=C(CCc1ccccc1)Nc1ccccc1F,-0.0735
17,CCN1CCN(CC(=O)Nc2ccc(Cl)c(Cl)c2)C(=O)C1=O,-0.0158
18,CCOc1ccc2[nH]c(S(=O)(=O)CC)nc2c1Cl,-0.23
19,O=C1NCCCCC1NC1CC(=O)N(c2ccccc2)C1=O (stereo unspecified),-0.113
20,CN(c1ccc(OCC(=O)N2CCC(C(N)=O)CC2)cc1)S(=O)(=O)c1cccs1,-0.161
21,Cc1ccc(N(CC(=O)Nc2cc(Cl)ccc2Oc2ccccc2)S(C)(=O)=O)c(C)c1,-0.131
22,COCC(=O)NCCNc1nc2ccc(C)cc2cc1C,-0.179
23,O=C(CCN1C(=O)c2ccccc2C1=O)Nc1cccc(S(=O)(=O)N2CCCCC2)c1,-0.322

row,SMILES,z-score
1,CCOC(=O)COc1nc(C)c(Br)c(OC)n1,-0.464
2,COCCn1c(SCC(=O)c2c(-c3ccccc3)n(C)c3ccccc23)nnc1-c1ccncc1,-0.708
3,COc1ccc(C/C(N)=N/OC(=O)C(c2ccccc2)c2ccccc2)cc1OC,-0.181
4,Cc1ccc(N2CC(C)Cn3c2nc2c3c(=O)n(CC(=O)OCc3ccccc3)c(=O)n2C)cc1C (stereo unspecified),0.137
5,CCC(C)n1c(/C=C/c2ccccc2)nc2ccccc21 (stereo unspecified),-0.242
6,COc1ccc(NC(=O)CSc2ccc3c4c(cccc24)C(=O)c2ccccc2-3)cc1,-0.0631
7,NC(=NC(=O)c1ccccc1)N1CCOCC1,-0.137
8,COc1ccc(CC(=O)Nc2c3c(nn2-c2cccc(Cl)c2)CS(=O)C3)cc1 (stereo unspecified),-1.01
9,CC(=O)Nc1cccc(OCC(O)Cn2cnc3ccccc32)c1 (stereo unspecified),0.023
10,CCOC(=O)c1nnn(CC(=O)Nc2cccc(OC)c2)c1C(=O)OCC,-0.172
11,Cc1ccc(NC(=O)CSC2=C(C#N)C(c3ccco3)CC(=O)N2)cc1 (stereo unspecified),-0.0289
12,CC(NC(=S)Nc1c(Cl)cccc1OC(F)F)C(C)(C)C (stereo unspecified),-0.253
13,O=C(NC(CO)Cc1ccc([N+](=O)[O-])cc1)C(Cl)Cl (stereo unspecified),-0.606
14,Nc1nonc1-c1noc(CCCN2C(=O)c3ccccc3C2=O)n1,0.166
15,COc1ccccc1NS(=O)(=O)CC12CCC(CC1=O)C2(C)C (stereo unspecified),0.651
16,COc1ccc(C(=O)/C=C/c2ccc(OC(=O)c3cc(OC)c(OC)c(OC)c3)cc2)cc1,-2.1
17,CCn1c(SCC(=O)N2CCc3ccccc32)nnc1-c1c[nH]c2ccccc12,0.361
18,O=C(CN(Cc1ccccc1)C1=NCCS1)c1ccc(Cl)cc1,0.804
19,O=C(NCc1ccccn1)c1ccc(CNS(=O)(=O)c2ccc(F)cc2)cc1,-0.111
20,CCCCN(CCCC)C(=O)c1cc(Cl)ccc1[N+](=O)[O-],-0.418
21,CCOC(=O)C(NC(=O)c1ccccc1Cl)(Nc1ccc(C(F)(F)F)cc1)C(F)(F)F (stereo unspecified),-1.39
22,Cc1ccc(C(=O)N2CC(=O)Nc3ccc(F)cc3C2c2ccccc2)cc1[N+](=O)[O-] (stereo unspecified),-0.229
23,O=C(COc1ccccc1)N/N=C/c1ccc(O[C@@H]2O[C@H](CO)[C@@H](O)[C@H](O)[C@H]2O)cc1,0.0169

row,SMILES,z-score
1,CC1C/C(=N/NC(=O)c2cccc(F)c2)c2ccc(O)cc2C1 (stereo unspecified),-0.137
2,COc1ccc(C2C(C#N)=C(N)OC3=C2C(=O)CC(C)(C)C3)cc1Cn1nc(C)c([N+](=O)[O-])c1C (stereo unspecified),-0.191
3,O=C(COC(=O)C1Cc2ccccc2CN1C(=O)c1ccccc1)Nc1ccc(SC(F)F)cc1 (stereo unspecified),-0.205
4,O=C(/C=C/c1ccc(Cl)cc1)NCc1ccco1,-0.0471
5,Cc1ccc(OCC(=O)N2CCc3ccccc32)cc1,-0.113
6,CC(C)(C)OC(=O)N/N=C\c1ccc(OC(=O)c2cccs2)cc1,-0.465
7,CCCOCC1CC2(CC(C)(c3csc(N)n3)OC2=O)C(=O)O1 (stereo unspecified),0.21
8,CCCOn1c(-n2nc(C)cc2C)nc2ccccc2c1=O,0.0266
9,CC1CCN(CC(=O)Nc2cccc(C(=O)Nc3cccc(C(F)(F)F)c3)c2)CC1,0.153
10,CCCc1ccc(C(=O)NNC(=O)c2ccc(Cl)cc2)cc1,0.194
11,COc1ccc(N2CCN(c3oc(Cc4ccccc4)nc3C#N)CC2)cc1,0.0944
12,CCCCOCCCn1cnc2c([nH]c3cc(OC)ccc32)c1=O,0.132
13,Cc1ccc(N2C(S)=C(C#N)C(=O)NC23CCCCC3)cc1,-0.224
14,CCc1c(C)nc2c(C#N)c(C)[nH]n2c1=O,-0.653
15,CCCCN(C)CCCNC(=O)C1CC(=O)N(Cc2ccc(OC)cc2)C1 (stereo unspecified),0.757
16,CCn1c(=O)n(CC(=O)NCc2ccco2)c(=O)c2ccccc21,0.656
17,COC(=O)c1cccc(S(=O)(=O)N2CCC(C)CC2)c1,-0.157
18,Cc1cccc(NC(=O)CSc2nc3ccccc3o2)c1,0.469
19,COc1ccc(CC(=O)NCc2cccs2)cc1OC,-0.413
